Measured values published in a collection of fitness landscapes (doi:10.1126/science.1257360).
Some of the results follow.

B1: PhoQ; a variant is named by its letters at X, in order, P23837 (parent)
chain: MKKLLRLFFPLSLRVRFLLATAAVVLVLSLAYGMVALIGYSVSFDKTTFRLLRGESNLFYTLAKWENNKLHVELPENIDKQSPTMTLIYDENGQLLWAQRDVPWLMKMIQPDWLKSNGFHEIEADVNDTSLLLSGDHSIQQQLQEVREDDDDAEMTHSVAVNVYPATSRMPKLTIVVVDTIPVELKSSYMVWSWFIYVLSANLLLVIPLLWVAAWWSLRPIEALAKEVRELEEHNRELLNPATTRELTSLVRNLNRLLKSERERYDKYRTTLTDLTHSLKTPLXXLQXXLRSLRSEKMSVSDAEPVMLEQISRISQQIGYYLHRASMRGGTLLSRELHPVAPLLDNLTSALNKVYQRKGVNISLDISPEISFVGEQNDFVEVMGNVLDNACKYCLEFVEISARQTDEHLYIVVEDDGPGIPLSKREVIFDRGQRVDTLRPGQGVGLAVAREITEQYEGKIVAGESMLGGARMEVIFGRQHSAPKDE

Variants of: B1
Test: enrichment ratio after two sorts for PhoP signalling (ratio (wild type AVST 3.29)); higher = more functional
Conditions: with PhoP (E. coli)

Variant	enrichment ratio
YIWL	≤ 0.25
HQDK	≤ 0.25
SGNQ	≤ 0.25
ELTH	≤ 0.25
TAAW	≤ 0.25
DQGN	≤ 0.25
NEFL	≤ 0.25
VLWP	≤ 0.25
SADA	≤ 0.25
SDGA	≤ 0.25
TDVR	≤ 0.25
RSGN	≤ 0.25
CIFS	≤ 0.25
DKIN	≤ 0.25
TMEW	≤ 0.25
GVCW	11.5
LLQN	≤ 0.25
EQRW	≤ 0.25
TLNA	3.71
LAQL	≤ 0.25
FAWG	≤ 0.25
YEKV	≤ 0.25
VACH	≤ 0.25
RKKW	≤ 0.25

Variant	enrichment ratio
AACR	7.58
LECP	≤ 0.25
KFQF	≤ 0.25
YRNK	≤ 0.25
TRYD	≤ 0.25
RRSP	≤ 0.25
KDIP	≤ 0.25
KTSS	≤ 0.25
SSAR	≤ 0.25
DWRW	≤ 0.25
RTIV	≤ 0.25
NHTF	≤ 0.25
EAFR	≤ 0.25
NESW	≤ 0.25
YYVQ	≤ 0.25
DMDQ	≤ 0.25
QEWD	4.99
ISLG	3.68
HNML	≤ 0.25
EIYR	≤ 0.25
SYPQ	≤ 0.25
SRTK	≤ 0.25
PCAR	≤ 0.25
ARWR	≤ 0.25

Variant	enrichment ratio
HTTL	1.2
YEQY	≤ 0.25
QDQI	≤ 0.25
TAPL	≤ 0.25
EPFS	≤ 0.25
RNGK	≤ 0.25
HAVH	≤ 0.25
GPVK	≤ 0.25
DKKH	≤ 0.25
AYRG	≤ 0.25
YELQ	7.19
KYSS	≤ 0.25
MGGH	20.1
SAGF	8.46
TCPW	≤ 0.25
QQHG	≤ 0.25
HFKH	≤ 0.25
TSGN	14.9
FHHD	≤ 0.25
MDVP	≤ 0.25
TWDQ	≤ 0.25
ARWL	≤ 0.25
KMRQ	≤ 0.25
SHEK	≤ 0.25

Variant	enrichment ratio
SCVR	1.05
WTSS	≤ 0.25
RQLY	≤ 0.25
FKEI	≤ 0.25
NSKN	≤ 0.25
LVWC	≤ 0.25
DCCE	≤ 0.25
KDYQ	≤ 0.25
DWAH	≤ 0.25
PGRS	≤ 0.25
TIIG	≤ 0.25
ERAC	≤ 0.25
GTHI	≤ 0.25
PADH	≤ 0.25
PKER	≤ 0.25
RAWS	≤ 0.25
VGTD	≤ 0.25
KYCW	≤ 0.25
RELL	≤ 0.25
HMPL	≤ 0.25
HMHH	≤ 0.25
YGDC	≤ 0.25
FHRN	≤ 0.25
VNTR	≤ 0.25

Variant	enrichment ratio
SMNC	≤ 0.25
EQYL	≤ 0.25
GCRE	≤ 0.25
PYPA	≤ 0.25
YQVM	≤ 0.25
AVCR	6.41
SSAL	12.2
DWSP	≤ 0.25
NHIS	≤ 0.25
LLQD	≤ 0.25
RTQN	2.93
HQTL	≤ 0.25
YSEW	≤ 0.25
LQHP	≤ 0.25
YTTH	≤ 0.25
ALEY	≤ 0.25
NPCL	≤ 0.25
DTSC	≤ 0.25
HPDV	≤ 0.25
RLGL	≤ 0.25
MESF	≤ 0.25
RMND	≤ 0.25
TVIY	≤ 0.25
PVSR	≤ 0.25

Variant	enrichment ratio
TMTD	≤ 0.25
APQM	≤ 0.25
VKEF	≤ 0.25
RDFG	≤ 0.25
RLFN	≤ 0.25
SWFE	≤ 0.25
SWTT	≤ 0.25
TQYP	≤ 0.25
HEYT	≤ 0.25
APKF	≤ 0.25
HHWY	≤ 0.25
MMDY	≤ 0.25
RHRE	≤ 0.25
VELM	4.12
WHLS	≤ 0.25
IENT	≤ 0.25
PFGH	≤ 0.25
FFIC	≤ 0.25
DTVQ	≤ 0.25
KTDC	≤ 0.25
EFIY	≤ 0.25
PMVC	≤ 0.25
ELLW	≤ 0.25
PCRW	≤ 0.25

Variant	enrichment ratio
PEHD	≤ 0.25
VFRQ	≤ 0.25
YGDY	≤ 0.25
SWCH	≤ 0.25
DIMS	≤ 0.25
VDVL	≤ 0.25
LRGA	≤ 0.25
QNFT	≤ 0.25
VAYK	≤ 0.25
LDVC	0.438
AKSA	3.15
YFCT	≤ 0.25
NLPR	≤ 0.25
HWPV	≤ 0.25
DSAN	≤ 0.25
WENI	≤ 0.25
HECY	≤ 0.25
DRLD	≤ 0.25
SDNY	0.96
NRFP	≤ 0.25
LSNC	≤ 0.25
NQFG	≤ 0.25
PKNI	≤ 0.25
EICH	≤ 0.25

Variant	enrichment ratio
KTDH	≤ 0.25
YQER	≤ 0.25
VQLE	≤ 0.25
DEQN	≤ 0.25
YATV	≤ 0.25
WFIT	≤ 0.25
PWAV	≤ 0.25
DNYD	≤ 0.25
ISSW	≤ 0.25
KHMN	≤ 0.25
YIAC	0.665
TYFC	≤ 0.25
HWRY	≤ 0.25
QDPR	≤ 0.25
VCYT	≤ 0.25
IPEG	≤ 0.25
QDYI	≤ 0.25
GTCE	≤ 0.25
QHCH	≤ 0.25
RNYS	≤ 0.25
PAAE	≤ 0.25
FPHV	≤ 0.25
RRNV	≤ 0.25
REDY	≤ 0.25

Variant	enrichment ratio
HTII	≤ 0.25
HECD	≤ 0.25
YRTE	≤ 0.25
YIFA	≤ 0.25
WIWL	≤ 0.25
NQHN	≤ 0.25
PERQ	≤ 0.25
NEPS	≤ 0.25
FKNG	≤ 0.25
MWPC	≤ 0.25
FSNY	≤ 0.25
RKCT	≤ 0.25
FNWM	≤ 0.25
GNAV	5.92
AQPT	≤ 0.25
SMMV	17.9
FIHC	≤ 0.25
GNQW	≤ 0.25
TQNE	≤ 0.25
NLPW	≤ 0.25
GHFT	≤ 0.25
PGPL	≤ 0.25
TCVK	≤ 0.25
TFVF	≤ 0.25

Variant	enrichment ratio
HCRN	≤ 0.25
PSVT	≤ 0.25
YIWK	≤ 0.25
INCW	≤ 0.25
NSMR	≤ 0.25
FATP	≤ 0.25
TVTW	≤ 0.25
FYWA	≤ 0.25
MGSQ	4.64
KIKL	≤ 0.25
GIVT	2.14
MYFM	≤ 0.25
IGRM	≤ 0.25
YPEL	≤ 0.25
KHMI	≤ 0.25
DPWS	≤ 0.25
QIMD	≤ 0.25
KNFN	≤ 0.25
DGRM	≤ 0.25
WDKW	≤ 0.25
RKKP	≤ 0.25
AGCV	23.6
LIVS	≤ 0.25
SDYT	≤ 0.25

Variant	enrichment ratio
IGAQ	≤ 0.25
RFTR	≤ 0.25
NRDW	≤ 0.25
KLGW	≤ 0.25
VELV	3.27
DDEC	≤ 0.25
ENGP	≤ 0.25
SIRY	≤ 0.25
VITI	≤ 0.25
AETY	16
KVAK	≤ 0.25
MPTS	≤ 0.25
WGNH	≤ 0.25
GDAP	≤ 0.25
YAGN	≤ 0.25
LGKD	≤ 0.25
LKCN	≤ 0.25
YRAD	≤ 0.25
MDTF	≤ 0.25
STQN	≤ 0.25
TKSY	3.1
SGMN	30.2
PYYV	≤ 0.25
YVFF	≤ 0.25

Variant	enrichment ratio
QTAS	≤ 0.25
QFCW	≤ 0.25
SFLQ	2.41
YCRF	≤ 0.25
VQKL	≤ 0.25
QDPQ	≤ 0.25
KINT	0.594
GFIH	≤ 0.25
QQCD	≤ 0.25
LIFE	≤ 0.25
QQNV	≤ 0.25
QSWH	4.01
EKTS	≤ 0.25
DYKY	≤ 0.25
DGHC	≤ 0.25
HPVH	≤ 0.25
HHFR	≤ 0.25
VVMC	≤ 0.25
NARS	≤ 0.25
RKHS	≤ 0.25
HYGI	≤ 0.25
DAMC	≤ 0.25
KSIE	≤ 0.25
SANG	≤ 0.25

Variant	enrichment ratio
GDVS	0.682
EYDL	≤ 0.25
IVWV	≤ 0.25
WFAC	≤ 0.25
EPDP	≤ 0.25
DWKM	≤ 0.25
FDNT	≤ 0.25
KCGD	≤ 0.25
EMGH	≤ 0.25
NSTR	≤ 0.25
AIWD	≤ 0.25
RIHP	≤ 0.25
KRHY	≤ 0.25
GHLN	≤ 0.25
EDFV	≤ 0.25
TEKD	≤ 0.25
WIYT	≤ 0.25
GLGC	≤ 0.25
